Test results as given in ChEMBL document CHEMBL1201862, “PubChem BioAssay data set” (2004).

Tested on: NCI-H322M
Experiment: NCI anticancer screen, dose series, 48 h

With COC(=O)[C@H]1[C@H]2C[C@@H]3c4[nH]c5cc(OC)ccc5c4CCN3C[C@H]2C[C@@H](OC(=O)c2cc(OC)c(OC)c(OC)c2)[C@@H]1OC [RESERPINE] as the molecule, how does the GI50 read?
The GI50 was inactive: 22.2 µM.

O=[N+]([O-])c1cc(I)cc(/C=N/NS(=O)(=O)c2ccc(F)cc2)c1O was tested. Which GI50 did it give?
Its GI50 is inactive: 26.9 µM.

For CC1=NCCN=C(C)C1/N=N/c1ccc2[nH]c(C)nc2c1, which GI50 is on record?
The GI50 was inactive: 14.8 µM.

Cc1nnc2sc(-c3ccc(-c4ccccc4Cl)o3)nn12 was tested. Which GI50 did it give?
The GI50 was inactive: > 100 µM.

For NS(=O)(=O)c1cc2c(cc1Cl)NC(C(=O)NNC(=O)c1ccncc1)=NS2(=O)=O, which GI50 is on record?
The GI50 was inactive: > 100 µM.

Which GI50 does the source give for CCCCCCCCCc1cc(=O)c2c(O)cc(O)cc2o1 here?
The GI50 was inactive: 20 µM.

How did the GI50 turn out when Cn1nc2ccc3nccc(N(CCO)CCO)c3c2n1 was run?
The GI50 was inactive: > 100 µM.

For C[N+](C)(C)CC1CCCC(C[N+](C)(C)C)C1O (stereo not drawn), which GI50 is on record?
The GI50 was inactive: > 100 µM.

For CC(=O)c1ccc2c(c1)oc(=O)n2CCN(C)C, which GI50 is on record?
The GI50 was inactive: > 100 µM.

Which GI50 does the source give for O=C(Nn1c(-c2ccccc2)nc2ccccc2c1=O)c1ccc(Cl)cc1 here?
Its GI50 is inactive: > 100 µM.

For COc1c(CC=C(C)C)c(O)c(C(CC(C)C)c2c(O)c3c(c(C(C)=O)c2O)OC(C(C)(C)O)C3)c(O)c1C(C)=O (stereo not drawn), which GI50 is on record?
The GI50 was inactive: 4.43 µM.

How did the GI50 turn out when COc1cc2c(c(OC)c1OC)-c1[nH]ncc1CC2 was run?
Its GI50 is inactive: > 100 µM.

For COC(=O)NC(Nc1ccccn1)(C(F)(F)F)C(F)(F)F, which GI50 is on record?
Its GI50 is inactive: > 100 µM.

How did the GI50 turn out when Cc1ccc(-c2nc(C)c(C(=O)Nc3ccc(Cl)cc3)s2)cc1 was run?
Its GI50 is inactive: 19.5 µM.

COC(=O)c1ccccc1C#CC#Cc1ccccc1C(=O)OC was tested. Which GI50 did it give?
The GI50 was inactive: > 10 µM.

With CC(=O)Nc1cccc2[nH]c3ccccc3c(=O)c12 as the molecule, how does the GI50 read?
The GI50 was inactive: 24 µM.

For CC(=O)Nc1ccc(S(=O)(=O)/N=c2/sc(S(N)(=O)=O)nn2C)cc1, which GI50 is on record?
Its GI50 is inactive: > 100 µM.

COc1cc2c(cc1OC)-c1cc(OC)c(OC)cc1[C@H]1CN3CCC[C@@]3(O)C=C21 was tested. Which GI50 did it give?
The GI50 was active: < 0.0001 µM.

With COC(=O)c1cc(NC(=O)Cn2c3ccccc3c3ccccc32)cn1C as the molecule, how does the GI50 read?
The GI50 was inactive: 60.5 µM.

O=C1c2ccccc2C(=O)C1C(c1ccc([N+](=O)[O-])cc1)C1C(=O)c2ccccc2C1=O was tested. Which GI50 did it give?
The GI50 was inactive: > 100 µM.

With CCOC(=O)/C(C)=C\[C@@]1(C)O[C@@H](C)[C@@](C)(OC(C)=O)[C@@H]1OC(C)=O as the molecule, how does the GI50 read?
The GI50 was inactive: 65.3 µM.

COc1ccc([C@H]2[C@H]3COC(=O)[C@H]3C(C#N)=C3Sc4ccccc4N32)cc1 was tested. Which GI50 did it give?
The GI50 was inactive: 29.6 µM.

CC1(C)CCCCCCC2OC2CCCCCC(C)(C)C1=O (stereo not drawn) was tested. Which GI50 did it give?
The GI50 was inactive: > 57.1 µM.

How did the GI50 turn out when CN(C)NC(=O)NC12CC3CC(CC(C3)C1)C2 was run?
The GI50 was inactive: > 100 µM.

Which GI50 does the source give for O=C1OC(CC(=O)c2ccc(F)cc2)C(Cl)=C1Cl (stereo not drawn) here?
Its GI50 is inactive: 18.3 µM.

With C/C(=N\NC(=O)c1ccc(Cl)cc1)c1nc2cccnc2[nH]1 as the molecule, how does the GI50 read?
Its GI50 is inactive: 32.6 µM.

Which GI50 does the source give for O=C(n1c(=O)n(-c2ccc(Cl)cc2)c(=O)n1C(=O)C(Cl)(Cl)Cl)C(Cl)(Cl)Cl here?
The GI50 was inactive: > 100 µM.

For CC1=C[C@@H]2[C@@H](CC(CO)=C[C@H]3[C@@H]4C(C)(C)[C@]4(OCC(C)C)[C@H](OCC(C)C)[C@@H](C)[C@]23O)C1=O, which GI50 is on record?
Its GI50 is inactive: 2.92 µM.

For CC(=O)NC(CCCN(Cc1ccccc1)C(=O)N(CCCl)N=O)C(=O)NCc1ccccc1 (stereo not drawn), which GI50 is on record?
Its GI50 is inactive: 49.5 µM.

How did the GI50 turn out when COC12CCC(C(C(=O)c3ccccc3)=C1C(=O)c1ccccc1)C(O)C2 (stereo not drawn) was run?
The GI50 was inactive: > 100 µM.

How did the GI50 turn out when O=c1c(C(c2cc(OCc3ccccc3)cc(OCc3ccccc3)c2)c2c(O)oc3ccccc3c2=O)c(O)oc2ccccc12 was run?
The GI50 was inactive: 9.66 µM.

Which GI50 does the source give for Cc1cn2c(/C=N/NC(=N)N)c(-c3ccc([N+](=O)[O-])cc3)nc2s1 here?
Its GI50 is inactive: 1.48 µM.

For C=C1C(OC)=C(OC)C(=O)c2[nH]c3c(OC)cc([N+](=O)[O-])cc3c21, which GI50 is on record?
The GI50 was inactive: > 100 µM.

CCOC(=O)[C@@]12C[C@](/C=C/OC)(O[Si](C)(C)C)[C@@]13c1cc(OC)c(OC)cc1CCN3C(=O)C2O (stereo partly drawn) was tested. Which GI50 did it give?
The GI50 was inactive: > 100 µM.

With C[N+]12C=CC=C1C(N1CCCC1)c1sc(-c3ccc(Cl)cc3)cc12 (stereo not drawn) as the molecule, how does the GI50 read?
The GI50 was inactive: 30.7 µM.

With OC12CC/C(=N/OCc3ccccc3)CC1c1ccccc12 (stereo not drawn) as the molecule, how does the GI50 read?
Its GI50 is inactive: > 100 µM.

O=C(O)C[C@@H]1[C@@H](O)[C@@H](O)CN2C(=O)c3ccccc3[C@H]12 was tested. Which GI50 did it give?
Its GI50 is inactive: > 100 µM.

For O=[N+]([O-])c1ccc(NC(=S)N/N=C(\c2ccccc2)c2ccccn2)cc1, which GI50 is on record?
The GI50 was inactive: 1.29 µM.

C[N+]1(C)[C@@H]2CC[C@H]1C[C@@H](OC(=O)C(CO)c1ccccc1)C2 (stereo partly drawn) [ATROPINE METHYLBROMIDE] was tested. Which GI50 did it give?
The GI50 was inactive: > 100 µM.

How did the GI50 turn out when COc1ccc(N2CC(=O)N(C(=O)COc3ccc(OCC(=O)N4C(=O)CN(c5ccc(OC)cc5)C4=S)cc3)C2=S)cc1 was run?
Its GI50 is inactive: 16 µM.

O=S1(=O)c2ccccc2C(=NO)c2ccccc21 was tested. Which GI50 did it give?
Its GI50 is inactive: > 100 µM.

How did the GI50 turn out when Nc1ccc(-c2nn3c(COc4ccc(Cl)cc4)nnc3s2)cc1 was run?
Its GI50 is inactive: > 100 µM.

With N#CC1(Nc2ccc(-c3ccc(NC4(C#N)CCCC4)cc3)cc2)CCCC1 as the molecule, how does the GI50 read?
Its GI50 is inactive: > 100 µM.

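Five concentrations, 48 hours, 96-well plates. GI50 is the concentration that inhibits growth by half.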 Activity calls are given as the source filed them. Cut-off read from the data, not from the text of the source: active = GI50 up to about 1.1 µM and inactive = higher.
